The other results are listed elsewhere or left out.
How the values were obtained:
Test in all cases: glycan array binding signal (z-score within array); higher = stronger binding
Conditions in all cases: glycan notation: IUPAC condensed, linker removed
[1] = biological target: GlcA(b1-3)Gal(b1-4)GlcNAc(b1-3)Gal(b1-4)GlcNAc(b1-3)Gal(b1-4)Glc
Method in brief: (§1)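 The binding signal is a Z-score computed within each array. Data were drawn from 3228 arrays in the Consortium for Functional Glycomics database, restricted to those with a known protein sequence. Scores were averaged over arrays of the same protein sequence at different concentrations or buffers, and over linkers, and negative values can be taken as non-binding.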

[2] = biological target: GlcA(b1-3)GlcNAc(b1-4)GlcA(b1-3)GlcNAc
Method in brief: as §1

[3] = biological target: GlcA(b1-3)GlcNAc(b1-4)GlcA(b1-3)GlcNAc(b1-4)GlcA(b1-3)GlcNAc(b1-4)GlcA(b1-3)GlcNAc(b1-4)GlcA(b1-3)GlcNAc(b1-4)GlcA(b1-3)GlcNAc(b1-4)GlcA(b1-3)GlcNAc
Method in brief: as §1

GlcA3S(b1-3)Gal = biological target: GlcA3S(b1-3)Gal
Method in brief: as §1

[4] = biological target: GlcA3S(b1-3)Gal(b1-4)GlcNAc(b1-3)Gal(b1-4)Glc
Method in brief: as §1

[5] = biological target: GlcA3S(b1-3)Gal(b1-4)GlcNAc(b1-3)Gal(b1-4)GlcNAc(b1-3)Gal(b1-4)Glc
Method in brief: as §1

GlcNAc(a1-4)Gal = biological target: GlcNAc(a1-4)Gal
Method in brief: as §1

[6] = biological target: GlcNAc(a1-4)Gal(b1-3)[Fuc(a1-2)]Gal
Method in brief: as §1

[7] = biological target: GlcNAc(b1-2)Man(a1-3)[GlcNAc(b1-2)Man(a1-6)]Man(b1-4)GlcNAc(b1-4)GlcNAc
Method in brief: as §1

[8] = biological target: GlcNAc(b1-2)Man(a1-3)[GlcNAc(b1-2)Man(a1-6)]Man(b1-4)GlcNAc(b1-4)[Fuc(a1-6)]GlcNAc
Method in brief: as §1

[9] = biological target: GlcNAc(b1-2)Man(a1-3)[GlcNAc(b1-2)Man(a1-6)][GlcNAc(b1-4)]Man(b1-4)GlcNAc(b1-4)GlcNAc
Method in brief: as §1

[10] = biological target: GlcNAc(b1-2)Man(a1-3)[Man(a1-3)[Man(a1-6)]Man(a1-6)][GlcNAc(b1-4)]Man(b1-4)GlcNAc(b1-4)GlcNAc
Method in brief: as §1

[11] = biological target: GlcNAc(b1-2)[GlcNAc(b1-4)]Man(a1-3)[GlcNAc(b1-2)Man(a1-6)][GlcNAc(b1-4)]Man(b1-4)GlcNAc(b1-4)GlcNAc
Method in brief: as §1

[12] = biological target: GlcNAc(b1-2)[GlcNAc(b1-4)]Man(a1-3)[GlcNAc(b1-2)[GlcNAc(b1-4)][GlcNAc(b1-6)]Man(a1-6)][GlcNAc(b1-4)]Man(b1-4)GlcNAc(b1-4)GlcNAc
Method in brief: as §1

[13] = biological target: GlcNAc(b1-2)[GlcNAc(b1-4)]Man(a1-3)[GlcNAc(b1-2)[GlcNAc(b1-6)]Man(a1-6)]Man(b1-4)GlcNAc(b1-4)GlcNAc
Method in brief: as §1

GlcNAc(b1-3)Fuc = biological target: GlcNAc(b1-3)Fuc
Method in brief: as §1

GlcNAc(b1-3)Gal(b1-4)Glc = biological target: GlcNAc(b1-3)Gal(b1-4)Glc
Method in brief: as §1

[14] = biological target: GlcNAc(b1-3)[GlcNAc(b1-6)]Gal(b1-4)GlcNAc(b1-3)[GlcNAc(b1-6)]Gal(b1-4)GlcNAc(b1-3)Gal(b1-4)Glc
Method in brief: as §1

GlcNAc(b1-4)GlcNAc = biological target: GlcNAc(b1-4)GlcNAc
Method in brief: as §1

[15] = biological target: GlcNAc(b1-4)GlcNAc(b1-4)GlcNAc
Method in brief: as §1

[16] = biological target: HexA(a1-3)GalNAc4S(b1-4)GlcA(b1-3)GalNAc4S
Method in brief: as §1

[17] = biological target: HexA(a1-3)GalNAc4S(b1-4)GlcA(b1-3)GalNAc4S(b1-4)GlcA(b1-3)GalNAc4S(b1-4)GlcA(b1-3)GalNAc4S(b1-4)GlcA(b1-3)GalNAc4S(b1-4)GlcA(b1-3)GalNAc4S(b1-4)GlcA(b1-3)GalNAc4S
Method in brief: as §1

[18] = biological target: HexA(a1-3)GalNAc4S(b1-4)IdoA(a1-3)GalNAc4S
Method in brief: as §1

[19] = biological target: HexA(a1-3)GalNAc4S(b1-4)IdoA(a1-3)GalNAc4S(b1-4)IdoA(a1-3)GalNAc4S(b1-4)IdoA(a1-3)GalNAc4S(b1-4)IdoA(a1-3)GalNAc4S(b1-4)IdoA(a1-3)GalNAc4S(b1-4)IdoA(a1-3)GalNAc4S
Method in brief: as §1

[20] = biological target: HexA(a1-3)GalNAc6S(b1-4)GlcA(b1-3)GalNAc6S
Method in brief: as §1

[21] = biological target: HexA(a1-3)GalNAc6S(b1-4)GlcA(b1-3)GalNAc6S(b1-4)GlcA(b1-3)GalNAc6S(b1-4)GlcA(b1-3)GalNAc6S(b1-4)GlcA(b1-3)GalNAc6S(b1-4)GlcA(b1-3)GalNAc6S(b1-4)GlcA(b1-3)GalNAc6S
Method in brief: as §1

[22] = biological target: HexA(a1-4)GlcNAc(a1-4)HexA(a1-4)GlcNAc(a1-4)HexA(a1-4)GlcNAc(a1-4)HexA(a1-4)Man
Method in brief: as §1

HexA2S(a1-4)GlcNS6S = biological target: HexA2S(a1-4)GlcNS6S
Method in brief: as §1

[23] = biological target: Kdn(a2-3)[GalNAc(b1-4)]Gal(b1-3)GlcNAc
Method in brief: as §1

Man(a1-2)Man = biological target: Man(a1-2)Man
Method in brief: as §1

[24] = biological target: Man(a1-2)Man(a1-2)Man(a1-3)[Man(a1-2)Man(a1-3)[Man(a1-2)Man(a1-6)]Man(a1-6)]Man(b1-4)GlcNAc(b1-4)GlcNAc
Method in brief: as §1

[25] = biological target: Man(a1-2)Man(a1-2)Man(a1-3)[Man(a1-2)Man(a1-6)[Man(a1-3)]Man(a1-6)]Man(b1-4)GlcNAc(b1-4)GlcNAc
Method in brief: as §1

[26] = biological target: Man(a1-2)Man(a1-2)Man(a1-3)[Man(a1-3)[Man(a1-6)]Man(a1-6)]Man(b1-4)GlcNAc(b1-4)GlcNAc
Method in brief: as §1

[27] = biological target: Man(a1-2)Man(a1-3)[Man(a1-2)Man(a1-6)[Man(a1-3)]Man(a1-6)]Man(b1-4)GlcNAc(b1-4)GlcNAc
Method in brief: as §1

[28] = biological target: Man(a1-2)Man(a1-3)[Man(a1-3)[Man(a1-6)]Man(a1-6)]Man(b1-4)GlcNAc(b1-4)GlcNAc
Method in brief: as §1

Man(a1-3)Man = biological target: Man(a1-3)Man
Method in brief: as §1

[29] = biological target: Man(a1-3)Man(a1-6)[Man(a1-3)]Man(b1-4)GlcNAc(b1-4)GlcNAc
Method in brief: as §1

Man(a1-3)Man(b1-4)GlcNAc = biological target: Man(a1-3)Man(b1-4)GlcNAc
Method in brief: as §1

Man(a1-3)[Man(a1-6)]Man = biological target: Man(a1-3)[Man(a1-6)]Man
Method in brief: as §1

[30] = biological target: Man(a1-3)[Man(a1-6)]Man(a1-6)Man(b1-4)GlcNAc(b1-4)GlcNAc
Method in brief: as §1

[31] = biological target: Man(a1-3)[Man(a1-6)]Man(a1-6)[Man(a1-3)]Man
Method in brief: as §1

[32] = biological target: Man(a1-3)[Man(a1-6)]Man(a1-6)[Man(a1-3)]Man(b1-4)GlcNAc(b1-4)GlcNAc
Method in brief: as §1

[33] = biological target: Man(a1-3)[Man(a1-6)]Man(b1-4)GlcNAc(b1-4)GlcNAc
Method in brief: as §1

[34] = biological target: Man(a1-3)[Man(a1-6)]Man(b1-4)GlcNAc(b1-4)[Fuc(a1-6)]GlcNAc
Method in brief: as §1

Man(a1-6)Man = biological target: Man(a1-6)Man
Method in brief: as §1

Measured: glycan array binding signal (z-score)

B1: Malectin (Xenopus laevis), Q6INX3 (protein)
chain: SGLADKVIWAVNAGGESHVDVHGIHYRKDPLEGRVGRASDYGMKLPILRSNPEDQVLYQTERYNEDSFGYDIPIKEEGEYVLVLKFAEVYFAQSQQKVFDVRVNGHTVVKDLDIFDRVGHSTAHDEIIPISIKKGKLSVQGEVSTFTGKLSVEFVKGYYDNPKVCALFIMKGTADDVPMLQPHPGLE
-0.068: Man(a1-6)Man
-0.225: [24]
-0.075: [4] | [23] | [25] | [31]
-0.074: [1] | [2] | GlcA3S(b1-3)Gal | [5] | [12] | GlcNAc(b1-3)Gal(b1-4)Glc | [17] | [20]
-0.149: [26]
-0.073: [16]
-0.071: [3] | [15]
-0.072: [9] | [33]
-0.07: [22]
-0.076: all other assays above
